In all, about 390,000 compounds went through this assay and about 17,000 (4.4%) were called active. This list was built around the results that the source calls inconclusive (neither active nor inactive); the mix of calls is not that of the screen. Calls follow the shape of the dose curve; as a rule, active = well fitted inhibition curve with a large enough effect; inconclusive = small, poorly fitted or top-dose-only effect; inactive = no such curve, though single readings can be large or run the other way. Where the call is inconclusive, the potency comes from a doubtful curve fit.
target: Lysine-specific demethylase 4A (Homo sapiens) (UniProt O75164); test: qHTS Assay for Inhibitors of JMJD2A-Tudor Domain; settings: AlphaScreen JMJD2A-Tudor / H3K4me3 peptide binding; series mostly up to 114 µM; also: nearly all actives have a fitted effect of over 50% in size
Chain of UniProt O75164 (O75164 whole entry, looked up, the tested form may be a part): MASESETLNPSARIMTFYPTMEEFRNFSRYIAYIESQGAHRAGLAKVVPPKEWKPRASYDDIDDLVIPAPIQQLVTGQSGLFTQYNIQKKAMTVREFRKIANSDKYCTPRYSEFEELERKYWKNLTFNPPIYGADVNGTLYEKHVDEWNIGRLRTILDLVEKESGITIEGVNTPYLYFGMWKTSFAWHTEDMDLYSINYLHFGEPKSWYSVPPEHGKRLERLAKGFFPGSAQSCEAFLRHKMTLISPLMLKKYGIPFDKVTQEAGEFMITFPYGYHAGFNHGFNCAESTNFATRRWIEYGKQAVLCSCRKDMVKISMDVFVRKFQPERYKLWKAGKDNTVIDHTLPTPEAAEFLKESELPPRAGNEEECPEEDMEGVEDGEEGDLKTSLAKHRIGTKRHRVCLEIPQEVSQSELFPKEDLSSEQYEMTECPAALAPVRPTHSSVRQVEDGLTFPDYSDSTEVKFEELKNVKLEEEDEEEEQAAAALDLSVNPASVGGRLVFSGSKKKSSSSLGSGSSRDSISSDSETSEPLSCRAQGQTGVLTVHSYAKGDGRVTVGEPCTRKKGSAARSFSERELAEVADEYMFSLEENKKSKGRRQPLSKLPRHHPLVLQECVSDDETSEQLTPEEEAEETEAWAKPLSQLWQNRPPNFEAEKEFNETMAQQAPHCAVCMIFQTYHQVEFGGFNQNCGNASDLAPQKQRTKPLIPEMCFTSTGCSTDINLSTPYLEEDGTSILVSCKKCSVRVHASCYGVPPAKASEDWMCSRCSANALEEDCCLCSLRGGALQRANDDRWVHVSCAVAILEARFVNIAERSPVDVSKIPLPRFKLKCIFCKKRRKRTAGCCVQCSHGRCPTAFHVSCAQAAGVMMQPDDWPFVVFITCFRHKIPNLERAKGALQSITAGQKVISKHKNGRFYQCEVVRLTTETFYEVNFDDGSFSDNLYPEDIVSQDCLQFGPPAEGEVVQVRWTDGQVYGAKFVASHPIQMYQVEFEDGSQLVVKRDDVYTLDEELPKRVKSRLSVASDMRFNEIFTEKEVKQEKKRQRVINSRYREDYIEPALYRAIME
Potency is read from the fitted curve at half-maximal effect; tags tell the direction and shape of the fitted curve.

Question: Which Potency does the source give for `Clc1ccccc1-c1ccc2ncnc(NCc3ccc4c(c3)OCO4)c2c1` here?
Answer: inconclusive: 79.4 µM [inhibitor, single point]

Question: With `CC1=C(C#N)C(/C=N/OCc2ccc(F)cc2Cl)CC(=O)N1` (configuration not stated) as the compound, how does the Potency read?
Answer: inconclusive: 22.4 µM [inhibitor, partial curve]

Question: Which Potency does the source give for `C/C(=N\NC(=O)c1cc(Br)ccc1O)c1ccccn1` here?
Answer: inactive

Question: For `C[C@]12c3[nH]c4cc(-c5ccco5)ccc4c3CCN1C(=O)[C@@H](CC(=O)NCc1ccco1)C[C@@H]2C(=O)N1CCOCC1`, which Potency is on record?
Answer: inconclusive: 35.5 µM [inhibitor, partial curve]

Question: With `CCCn1nnnc1NC(=O)CSc1ccc(Cl)cc1` as the compound, how does the Potency read?
Answer: inconclusive: 100 µM [inhibitor, single point]

Question: For `NC1=NC2(CCCCC2)N=C(Nc2ccc(Br)cc2)N1`, which Potency is on record?
Answer: inconclusive: 39.8 µM [inhibitor, single point]

Question: How did the Potency turn out when `COc1ccc(/C=C/C(=O)c2ccc(O)cc2)cc1` was run?
Answer: inconclusive: 79.4 µM [inhibitor, partial curve]

Question: With `Cc1cccc(CNC(=O)c2cnc3sc(N4CCCCCC4)nn3c2=O)c1` as the compound, how does the Potency read?
Answer: inconclusive: 39.8 µM [inhibitor, single point]

Question: For `COc1ccc(CC(=O)N2CCN(C(=O)Cc3ccc(OC)cc3)CC2)cc1`, which Potency is on record?
Answer: inconclusive: 79.4 µM [inhibitor, partial curve]

Question: For `COc1ccc(Cl)cc1S(=O)(=O)N(C)CC(=O)N1CCOCC1`, which Potency is on record?
Answer: inactive

Question: How did the Potency turn out when `Oc1ccc(CNc2cccnc2)c2cccnc12` was run?
Answer: active: 22.4 µM

Question: Which Potency does the source give for `Cc1cccc2c1NC(=O)C21N2CCCC2C(C(=O)c2ccc3ccccc3c2)C12C(=O)Nc1ccccc12` (configuration not stated) here?
Answer: inconclusive: 39.8 µM [inhibitor, partial curve]

Question: How did the Potency turn out when `C=CCNc1nc2c3ccccc3n(C(C)=O)c2s1` was run?
Answer: inconclusive: 79.4 µM [inhibitor, partial curve]

Question: With `CCN1CCN(c2cc(C)c3cc(NC(=O)c4cc(Cl)ccc4OC)ccc3n2)CC1` as the compound, how does the Potency read?
Answer: inconclusive: 50.1 µM [inhibitor, partial curve]

Question: With `COC(=O)c1ccc(C(C2C(=O)CC(C)(C)CC2=O)C2C(=O)CC(C)(C)CC2=O)cc1` as the compound, how does the Potency read?
Answer: inactive

Question: For `Cc1nn2c(=O)cc(COC(=O)CNC(=O)c3ccc(F)cc3)nc2s1`, which Potency is on record?
Answer: inactive

Question: Which Potency does the source give for `COc1ccc(C2=NC(C)(C)N(CC(=O)Nc3ccc(F)c(F)c3)C2=O)cc1` here?
Answer: inactive

Question: How did the Potency turn out when `COc1ccc(S(=O)(=O)N2CCOCC2)cc1NC(=O)CSc1nnc2c(n1)[nH]c1ccccc12` was run?
Answer: inactive

Question: How did the Potency turn out when `CCOc1ccc(N/C=C/C(=O)c2ccc(OC)cc2)c([N+](=O)[O-])c1` was run?
Answer: inconclusive: 2 µM [inhibitor, full curve, poor fit]

Question: With `COc1c(C)cc(S(=O)(=O)NCc2ccccn2)c(C)c1C` as the compound, how does the Potency read?
Answer: active: 25.1 µM

Question: `O=C(CSc1nnc(Nc2ccccc2)s1)NN1C(=O)NC2(CCCCC2)C1=O` was tested. Which Potency did it give?
Answer: inactive

Question: Which Potency does the source give for `O=C(CSC1=Nc2ccccc2C2CC=NN12)Nc1ccc2c(c1)OCO2` (configuration not stated) here?
Answer: inconclusive: 35.5 µM [inhibitor, full curve]

Question: With `O=c1cc[nH]c2c1ccc1cccnc12` as the compound, how does the Potency read?
Answer: inactive

Question: For `COC(=O)c1cc(O)c(O)c(O)c1`, which Potency is on record?
Answer: active: 20 µM

Question: Which Potency does the source give for `Cc1cccc(N2CCN(C(=O)CCSCc3ccccc3F)CC2)c1C` here?
Answer: inactive

Question: With `CCOc1cccc(C(=O)NC(=S)Nc2ccc(Cl)cc2C(=O)O)c1` as the compound, how does the Potency read?
Answer: inconclusive: 56.2 µM [inhibitor, partial curve, poor fit]

Question: `Cc1cccc(OCc2n[nH]c(=S)n2C2CCCCC2)c1` was tested. Which Potency did it give?
Answer: inconclusive: 89.1 µM [inhibitor, partial curve]

Question: Which Potency does the source give for `COc1ccccc1NS(=O)(=O)c1cc2c(cc1Cl)NC(=O)CO2` here?
Answer: inconclusive: 79.4 µM [inhibitor, partial curve]

Question: How did the Potency turn out when `CCN(CC)C(=O)C(C)OC(=O)COc1ccc(Cl)cc1C` (configuration not stated) was run?
Answer: inconclusive: 100 µM [inhibitor, single point]

Question: Which Potency does the source give for `C=CCN(CC=C)S(=O)(=O)c1ccc2nc(NC(=O)C3CCCO3)sc2c1` (configuration not stated) here?
Answer: inactive

Question: Which Potency does the source give for `O=C(Nc1nnc(-c2cccs2)o1)c1cccc(Oc2ccccc2)c1` here?
Answer: inconclusive: 22.4 µM [inhibitor, full curve, poor fit]

Question: How did the Potency turn out when `O=C(OC1CCOC1=O)C1CCN(S(=O)(=O)c2c(Cl)cccc2Cl)CC1` (configuration not stated) was run?
Answer: inactive

Question: `Cc1ccc(/C(N)=N/OC(=O)CCCc2ccccc2)cc1` was tested. Which Potency did it give?
Answer: inactive

Question: `COc1ccc(CN2CCCCCC2)cc1OC` was tested. Which Potency did it give?
Answer: inconclusive: 63.1 µM [inhibitor, single point]

Question: With `COC(=O)C1=C(C(=O)OC)[C@@H]2N(C)c3ccc(OC)cc3[C@@]23C[C@@H](C(=O)OC)N(C(=O)c2cc(C)oc2C)C3=N1` as the compound, how does the Potency read?
Answer: active: 44.7 µM

Question: `COc1ccc(OC)c(C2CC(=O)N3CN(c4ccccc4F)CSC3=C2C#N)c1` (configuration not stated) was tested. Which Potency did it give?
Answer: active: 22.4 µM

Question: Which Potency does the source give for `COc1ccc(C(=O)COC(=O)Cc2c[nH]c3ccccc23)c(OC)c1` here?
Answer: inconclusive: 39.8 µM [inhibitor, partial curve]

Question: For `O=C(O)c1c2c(nc3ccccc13)/C(=C/c1ccc(OC(F)F)cc1)CCC2`, which Potency is on record?
Answer: inactive

Question: Which Potency does the source give for `COc1cc(C(=O)N/N=C(\C)Cc2ccccc2)cc(OC)c1OC` here?
Answer: active: 8.91 µM

Question: Which Potency does the source give for `COc1ccc(-n2sc3ccc(F)cc3c2=O)cc1` here?
Answer: active: 11.2 µM

Question: Which Potency does the source give for `COc1ccc(Cl)cc1NC(=O)Cn1c2ncccc2c(=O)n1-c1ccc(C)c(C)c1` here?
Answer: inconclusive: 89.1 µM [inhibitor, single point]

Question: Which Potency does the source give for `O=[N+]([O-])c1cc([N+](=O)[O-])c(Oc2cc(Cl)ccc2Cl)cc1NC1CCCCCCC1` here?
Answer: inconclusive: 5.62 µM [inhibitor, partial curve]

Question: For `CN(C)CCCC(=O)c1ccc2c(c1)OCO2`, which Potency is on record?
Answer: inactive

Question: `O=C1C2CCCCN2C(=O)N1CCCN1CCN(c2ccc(F)cc2)CC1` (configuration not stated) was tested. Which Potency did it give?
Answer: inconclusive: 89.1 µM [inhibitor, single point]

Question: With `COC(=O)c1ccc(N2CCN(S(=O)(=O)c3ccccc3)CC2)c([N+](=O)[O-])c1` as the compound, how does the Potency read?
Answer: inconclusive: 17.8 µM [inhibitor, single point]

Question: Which Potency does the source give for `c1ccc(-c2nc(NCC3CCCO3)c3ccccc3n2)nc1` (configuration not stated) here?
Answer: active: 89.1 µM

Question: Which Potency does the source give for `COc1ccccc1NC(=O)c1c(NCc2sccc2C)sc2c1CCCCC2` here?
Answer: active: 44.7 µM

Source: PubChem BioAssay AID504339 (National Center for Advancing Translational Sciences (NCATS), 2011)
